Laboratory results published in PubChem BioAssay AID1347073 (National Center for Advancing Translational Sciences (NCATS), 2019).
Hit rate of the full screen: of about 45,000 compounds, about 200 (0.44%) were called active. Roughly 7% stayed inconclusive and do not appear here. The call rests on the fitted dose curve; in most records, active means well fitted activation curve with a large enough effect; inconclusive means small, poorly fitted or top-dose-only effect; inactive means no such curve, though single readings can be large or run the other way. The list shows a part of the results.

experiment: qHTS of TDP-43 Inhibitors: NCGC Sytravon Library Screen; settings: yeast TDP-43 toxicity rescue, BacTiter-Glo growth, 24 h; series mostly up to 46.1 µM; growth rescue (activation): at the top concentration; further: 0% is about no effect; nearly all actives have a fitted effect of over 55% in size
How it was run: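 TDP-43-expressing yeast, pregrown in raffinose, seeded at OD600 0.02 in galactose medium with compound for 24 hr at 30 deg C. Growth read by BacTiter-Glo luminescence, so rescue of toxicity appears as activation.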

Row | Compound | growth rescue (activation)
1 | Cc1occc1C(=O)Nc1ccccc1C(=O)O | inactive: -18.2%
2 | CCOc1ccc(NCc2cccn2-c2nnc(N3CCC(C(=O)NCc4ccc(C)cc4)CC3)s2)cc1 | inactive: -2.7%
3 | CC(C)(C)c1ccc(C(CC(=O)O)NC(=O)CCCc2ccccc2)cc1 (stereo not given) | inactive: 13.8%
4 | CC(Cl)C(=O)NC(=O)NC12CC3CC(CC(C3)C1)C2 (stereo not given) | inactive: 10.6%
5 | O=C(Nc1ccc(Cl)c(Cl)c1)C1CCN(C(=O)c2ccco2)CC1 | inactive: 13.9%
6 | Nn1c(Cc2cccc3ccccc23)nnc1SCc1ccccc1Cl | inactive: 22.6%
7 | O=C(/C=C/c1cccc([N+](=O)[O-])c1)NCc1ccc2c(c1)OCO2 | inactive: 13%
8 | O=c1c2c(-c3ccccc3)csc2ncn1/N=C/c1ccc(O)c([N+](=O)[O-])c1 | inactive: -7.58%
9 | COc1ccc(OC)c(C(=O)/C=C/c2cccnc2)c1 | inactive: -10.4%
10 | CCC(C)NC(=O)COC(=O)c1cccnc1Nc1ccccc1F (stereo not given) | inactive: 4.85%
11 | O=C(N/N=C/C(Cl)=C\c1ccccc1)c1cccs1 | inactive: 14.5%
12 | CN1CCc2nc3ccc(Cl)cc3c(-c3ccccc3Cl)c2C1 | inactive: 12%
13 | CC(=O)Nc1cccc(Oc2ncnc3scc(-c4ccccc4)c23)c1 | inactive: 18.3%
14 | COc1ccccc1NC(=O)CSc1nc2sc(C)c(C)c2c(=O)n1C | inactive: -14.6%
15 | O=c1c2c([N+](=O)[O-])cc([N+](=O)[O-])cc2sn1Cc1ccccc1 | inactive: -93.3%
16 | O=C(CO/N=C/c1ccc(OC(F)F)cc1)NC1CCCCC1 | inactive: 10.5%
17 | COc1ccc(CCC(=O)Nc2ccccc2C(F)(F)F)cc1 | inactive: 28.4%
18 | CCCn1nc(NC(=O)c2cccs2)c2cc3cc(OC)ccc3nc21 | inactive: 40.7%
19 | COc1cc2c(cc1OC)CN(CC(=O)Nc1ccc(F)cc1)C(C(=O)O)C2 (stereo not given) | inactive: 2.3%
20 | COc1cccc(CNC(=O)C2CCN(S(=O)(=O)c3ccc(-n4cnnn4)cc3)CC2)c1 | inactive: 8.23%
21 | Cn1ncc(Cl)c1C(=O)N1CCN(c2ccc(F)cc2)CC1 | inactive: 19.2%
22 | CCCCN(CC)CCCNC(=O)C1CCN(c2nc3ccc(CC)cc3s2)CC1 | inactive: 7.61%

Row | Compound | growth rescue (activation)
23 | COc1ccc(CCN(C)C(=O)c2cncc(Br)c2)cc1OC | inactive: -13.1%
24 | COc1ccc(CCC(=O)NCc2nc3cccnc3n2Cc2ccc(C)cc2)cc1 | inactive: 14.1%
25 | CN=C1S/C(=C\c2ccc(N3CCCC3)c(F)c2)C(=O)N1C | inactive: 12.6%
26 | O=S(=O)(c1ccc2c(c1)OCCO2)N1CCN(Cc2ccccc2)CC1 | inactive: 17.5%
27 | Cc1cccc(N2CCC(N=CN(C)C)=N2)c1 | inactive: 2.29%
28 | COC(=O)N/N=C(\C)c1ccc(OC(F)F)cc1OC(F)F | inactive: 4.78%
29 | Cc1ccccc1N1CCN(S(=O)(=O)N(C)C)CC1 | inactive: 8.07%
30 | CCCc1nn(C)c(C(N)=O)c1[N+](=O)[O-] | inactive: 3.01%
31 | CC1(C)CC(NC(=O)CCc2ccccc2)CC(C)(C)N1 | inactive: -24.6%
32 | O=C(CN1CCC(NC(=O)C2CCCCC2)CC1)Nc1ccccc1 | inactive: 4.7%
33 | Cn1cc(CN2CCCC(CO)(Cc3ccccc3)C2)cn1 (stereo not given) | inactive: 2.48%
34 | COC(=O)C1CCN(c2ccc([N+](=O)[O-])cc2[N+](=O)[O-])CC1 | inactive: 14.6%
35 | CC(=O)N1CCN(S(=O)(=O)c2cccc(C(=O)OCC(=O)NC(=O)c3cccn3C)c2)CC1 | inactive: -13.9%
36 | Cc1cccn2c(=O)c(/C=C(\C#N)C(=O)NC3CCS(=O)(=O)C3)c(Oc3ccccc3Cl)nc12 (stereo not given) | inactive: -19.7%
37 | COc1ccc(N2C(=O)CC(C#N)=C2N)cc1 | inactive: 11.9%
38 | CCOC(=O)C1=C(C(F)(F)F)Nc2ncnn2C1c1ccc(OC)cc1OC (stereo not given) | inactive: 5.58%
39 | COc1cc(/C=C2/SC(=S)N(Cc3ccccc3)C2=O)cc(OC)c1O | inactive: -29.5%
40 | COC(=O)c1ccc(COC(=O)c2ccc(CO)cc2)o1 | inactive: 27.4%
41 | COc1ccc(CN(CC2CCC(C(=O)O)CC2)C(=S)Nc2ccccc2C)cc1 (stereo not given) | inactive: 0.308%
42 | COc1ccc(OC)c(NC(=O)NCCc2cccc(Cl)c2)c1 | inactive: 8.21%
43 | CSc1nsc(SC)c1C(=O)N1CCN(S(=O)(=O)c2ccc(C)cc2)C1C (stereo not given) | inactive: -11.4%
44 | COC(=O)/C(C#N)=C/c1c[nH]c2ccccc12 | inactive: 17.1%

Row | Compound | growth rescue (activation)
45 | O=c1cc(NS(=O)(=O)c2ccccc2)nc(SCc2c(Cl)cccc2Cl)[nH]1 | inactive: 9.29%
46 | CC1(C(=O)NS(=O)(=O)c2ccc(Cl)s2)CCN1C(=O)Cc1ccc(Cl)cc1Cl (stereo not given) | inactive: 16.7%
47 | Cc1ccc(-c2csc(NC(=O)CN3CCOCC3)n2)cc1C | inactive: 5.1%
48 | O=C(Nc1ccccc1)c1ccc(CN2CCC(Cc3ccccc3)CC2)cc1 | inactive: 8.46%
49 | CC(Oc1ccccc1)C(=O)Nc1ccc(NC(=O)c2ccccc2)cc1 (stereo not given) | inactive: 1.17%
50 | COCc1nnc(NC(=O)c2cc(OC)c(OC)cc2[N+](=O)[O-])s1 | inactive: 15.4%
51 | O=C(COC(=O)c1ccc(N2CCCC2=O)cc1)c1ccccc1 | inactive: 2.93%
52 | Cc1nc2cc(N3CCN(C)CC3)c(NC(=O)Cc3ccccc3)cc2c(=O)n1Cc1ccccc1 | inactive: 20.4%
53 | O=S(=O)(NCC1CCCO1)c1ccc(Cl)nc1 (stereo not given) | inactive: 9.12%
54 | O=C(O)C1CCCN(C(=O)/C=C/c2ccccc2)CC1 (stereo not given) | inactive: 16.6%
55 | O=C(Oc1ccc(Br)cc1C(=S)N1CCOCC1)c1cccc([N+](=O)[O-])c1 | inactive: 14.2%
56 | O=C(C[n+]1cc(-c2ccccc2)n2c1CCC2)OCc1ccccc1 | inactive: 5.55%
57 | COCCNC(=O)CN(Cc1ccc(F)cc1)C(=O)CCC(=O)Nc1nccs1 | inactive: 6.71%
58 | Cc1ccc(O)c(NC(=S)NC(=O)C(C)C)c1 | inactive: 9.9%
59 | Cc1ccc(C2(c3noc(CN(C)CC4COCCO4)n3)CCCC2)cc1 (stereo not given) | inactive: 3.96%
60 | C=CCN1CC(O)=C(c2nc3ccccc3[nH]2)C1=N | inactive: 1.96%
61 | Cc1cc(C(=O)Nc2ccon2)c(C)o1 | inactive: 22.4%
62 | CN(C)Cc1c(O)c(Cl)cc2c3c(c(=O)oc12)CCCC3 | inactive: -3.42%
63 | CCn1c(=O)c2c3c(sc2n2c(SCc4ccc(F)cc4)nnc12)CCCC3 | inactive: 28.6%
64 | COc1ccc(Cl)cc1NC(=S)NCCO | inactive: 8.79%
65 | O=c1[nH]c(C2CCN(S(=O)(=O)c3ccc(S(=O)(=O)NC4CC4)cc3)CC2)nc2c1nnn2Cc1ccccc1 | inactive: 4.53%
66 | Cc1ccc(N(CC(=O)NC2CCCC2)C(=O)CNC(=O)c2cccs2)c(C)c1 | inactive: 1.13%

Row | Compound | growth rescue (activation)
67 | Cc1ccc(S(=O)(=O)N/N=C/c2cccc3c2OCCO3)cc1 | inactive: 12.6%
68 | Cc1cccc(C)c1NC(=O)CNCC(=O)Nc1c(C)cccc1C | inactive: 11.5%
69 | O=c1[nH]c(CN2CCN(c3ncccn3)CC2)nc2c(Br)cc(Br)cc12 | inactive: 0.179%
70 | CCCCN(CCCC)CC(O)COc1ccc(Br)cc1 (stereo not given) | inactive: -6.49%
71 | CC(=O)Nc1ccc(S(=O)(=O)Nc2cccn(Cc3ccc(C)cc3)c2=O)cc1 | inactive: 2.1%
72 | COC(=O)c1ccc(N2CCN(C)CC2)c(NC(=O)c2sc3ccccc3c2Cl)c1 | inactive: -6.26%
73 | Cc1nc2sc(-c3ccccc3)cc2c(=O)n1-n1cccc1 | inactive: -23.2%
74 | CN(C)c1ccnc(Nc2ccccc2)c1C#N | inactive: -2.6%
75 | Cc1cc(C)c2nncn2n1 | inactive: 1.96%
76 | COc1ccc(S(=O)(=O)N2CCN(CC(=O)Nc3c(C)n[nH]c3C)CC2)cc1OC | inactive: -5.6%
77 | Nc1c2c(nn1-c1ccc(C(=O)O)cc1)CNC2 | inactive: 5.92%
78 | CSc1ccc(NC(=O)N2CCC(C(=O)c3ccc(F)cc3)CC2)cc1 | inactive: -0.559%
79 | Cc1ccc2c(c1)N(CC(=O)N1CCCCC1C)C(=O)CO2 (stereo not given) | inactive: 6.9%
80 | Cc1cc(=S)cc(C)n1CCO | inactive: 11.7%
81 | CCOP(=O)(OCC)C(O)c1cc(OC)c(OC)c(OC)c1 (stereo not given) | inactive: -2.89%
82 | CC1CCCC(C)N1c1ccc(S(=O)(=O)N2CCOCC2)cc1Cl (stereo not given) | inactive: 10.9%
83 | Cc1occc1-c1nnc(SCC(=O)NCc2cccs2)n1CC1CCCO1 (stereo not given) | inactive: 2.01%
84 | CCOc1ccc(CCNC(=O)c2[nH]c(C)c(C(C)=O)c2CC)cc1OCC | inactive: 10.4%
85 | Cc1ccc(CN(C(=O)COc2ccc(Cl)cc2C)C2CCS(=O)(=O)C2)o1 (stereo not given) | inactive: 12%
86 | COc1ccc(CCN2C(=NC(=O)C(C)C)SC3CS(=O)(=O)CC32)cc1 (stereo not given) | inactive: 9.5%
87 | COCCN(C(=O)CCCC(=O)Nc1ccccn1)C(C(=O)NC1CCCCC1)c1ccc(C)cc1 (stereo not given) | inactive: -0.906%
88 | CNC(=S)N1CCN(c2nc(-c3ccc(Cl)cc3)cs2)CC1 | inactive: 6.35%

Row | Compound | growth rescue (activation)
89 | Cc1ccc(-n2nc(C(=O)O)c3ccccc3c2=O)cc1C | inactive: 25.6%
90 | O=C(NC1CCCC1)C1CC(=O)N(c2ccc(F)cc2)C1 (stereo not given) | inactive: -11.1%
91 | O=C(Nc1ccc(Cl)cc1)/C(=C/c1cccc(O)c1)c1nc2ccccc2s1 | inactive: 6.91%
92 | CC(=O)N(C)c1ccc(NC(=O)Nc2ccccc2C)cc1 | inactive: -0.344%
93 | COc1ccc(Cl)cc1N1C(=O)CC(N2CCN(S(=O)(=O)c3ccccc3F)CC2)C1=O (stereo not given) | inactive: 9.06%
94 | COc1ccc(NC(=O)c2ccc(CNc3c(N4CCCC4)c(=O)c3=O)cc2)cc1Cl | inactive: 25.6%
95 | Cc1ccc(NS(=O)(=O)c2ccc(OCC(=O)NCc3ccncc3)cc2)cc1 | inactive: 3.56%
96 | CCCc1nnc(SCC(=O)Nc2ccccc2Cl)n1CC1CCCO1 (stereo not given) | inactive: -9.09%
97 | N#Cc1ccccc1OCC(=O)Nc1ccc(S(=O)(=O)N2CCOCC2)cc1 | inactive: 11.7%
98 | Cc1ccccc1-c1cn(-c2ccccc2)c(=S)[nH]1 | inactive: 0.942%
99 | O=C(COC(=O)c1ccc(Cl)nc1)NCc1ccc(F)cc1 | inactive: 7.46%
100 | O=C(COC(=O)Cn1cc(C(F)(F)F)ccc1=O)Nc1ccc(Br)cc1F | inactive: -5.86%
101 | Cn1c(NC(=O)/C=C/c2ccc(Cl)c(Cl)c2)cc(=O)n(C)c1=O | inactive: 17.9%
102 | C/C(=N\NC(=O)CCc1c[nH]c2ccccc12)c1cccc([N+](=O)[O-])c1 | inactive: 8.47%
103 | Cc1nc(C)n(CCNS(=O)(=O)c2ccc(C)c(C)c2)n1 | inactive: 7.26%
104 | O=C(NCCOc1ccccc1)C1=CC=CN2CCS(=O)(=O)N=C12 | inactive: 14.1%
105 | C/C(=N/NC(=O)c1nnn(-c2nonc2N)c1-c1ccccc1)c1ccncc1 | inactive: -3.59%
106 | O=C(CCN1C(=O)/C(=C/c2ccc3c(c2)OCO3)SC1=S)Nc1ccc(C(=O)O)cc1 | inactive: 3.94%
107 | CC(C(=O)c1ccc(-c2ccccc2)cc1)[n+]1cccc(Br)c1 (stereo not given) | inactive: 20.2%
108 | O=C(O)C1CCCN(C(=O)c2cccc3ccccc23)C1 (stereo not given) | inactive: 0.79%
109 | CCCCN(C)C1CCN(C(=S)Nc2ccc(OC)cc2)CC1 | inactive: 7.83%
110 | COc1ccc(Cc2nc3ccc(C(=O)N4CCC[C@H]4CO)cc3o2)cc1 | inactive: -1.25%
